Data on 21 compounds can be found in ChEMBL document CHEMBL4888484, “Replenishing the malaria drug discovery pipeline: Screening and hit evaluation of the MMV Hit Generation Library 1 (HGL1) against asexual blood stage Plasmodium falciparum ,using a nano luciferase reporter read-out” (2022).

The term % Inhibition denotes the relative decrease from the control value, in per cent.

Screen size: about 150,000 compounds; about 540 (0.36%) showed an effect of 50% or more. The list shows a part of the results.

The test deals with Plasmodium falciparum. Put plainly: Primary screen in NF54 nanoGlo assay, in single point, at 2uM, 72h; a lower Z score goes with more inhibition. The test is classed as functional, Erythrocyte. Conditions: timepoint 72 hour.
Regarding `CC(=O)N[C@@H](Cc1c[nH]c2ccccc12)C(=O)N1CCC(C)CC1`, the “% Inhibition” value worked out at 1% and the Z score is -0.06.
The like results for `O=C(NC1CC1)NC1CCN(C(=O)c2cccc(F)c2)CC1` were, in that order, -3% and 0.44.
The like results for `O=C(NC1CCCC1)N1CC(n2nccn2)C1` were, in that order, 2% and -0.24.
Take `O=C(Nc1cccc(C(F)(F)F)c1)c1ccccc1C(=O)c1ncc[nH]1`: the “% Inhibition” value is -11% and the Z score is 1.51.
The like results for `CC(C)N1CCN(C(=O)CCc2nnc(Cc3cccc(C(F)(F)F)c3)o2)CC1` were, in that order, -13% and 1.93.
`CN(Cc1ccccc1)[C@@H]1COC2(C1)CN(C(=O)COCc1ccccc1)C2`: the “% Inhibition” value is recorded as -3% and the Z score was 0.4.
For the compound `CCc1nc(CN(C)c2cc(C(=O)N3CCOCC3)c3ccccc3n2)cs1`, the “% Inhibition” value is on record as 5% and the Z score was -0.59.
Take `CCc1nc2cc(C(=O)NCCc3c[nH]c4ccccc34)cc(NC(=O)c3ccccc3OC)c2n1C`: the “% Inhibition” value is reported as -10% and the Z score is listed as 1.39.
The like results for `Cc1nn(Cc2cccc(C(F)(F)F)c2)c(=O)n1-c1cccc(C(F)(F)F)c1` were, in that order, 0% and -0.06.
For `O=C(c1ccc(-c2ccncc2F)cc1)N1CC[C@@H](O)C1`, the “% Inhibition” value was determined as 2% and the Z score is reported as -0.39.
Turning to `CCCc1nc(C(=O)Nc2cc(-c3nnc(C)o3)ccc2OC)cs1`, the “% Inhibition” value is on record as 2% and the Z score was -0.41.
With `CN1C[C@@H]2C[C@H]1C(=O)N[C@H](Cc1ccccc1)C(=O)NCc1cn(nn1)CCCOc1ccc(cc1Cl)C(=O)N2`, the “% Inhibition” value came to 14% and the Z score is -1.89.
`CN1CCN(c2nc3c(c(N4CCCCC4)n2)CN(C(=O)c2ccccc2)CC3)CC1`: the “% Inhibition” value was determined as 5% and the Z score is -0.75.
Regarding `Cc1ccc(C)c(-c2cc(C(=O)N(CCC(=O)NCC3CC3)CC(C)C)no2)c1`, the “% Inhibition” value stood at 9% and the Z score is reported as -0.84.
Turning to `Cc1cccc(OCC(=O)Nc2cc(-c3noc(C4CCC4)n3)sc2C)c1`, the “% Inhibition” value is 1% and the Z score is -0.17.
The corresponding values for `Cc1noc(C)c1CC(=O)N1CCCCCCNC(=O)[C@@H]2CCCC[C@@H]21` are -17% and 2.22.
For `COc1ccc(CN2CC(CN(C(=O)c3ccc(F)cc3)C(C)C)C(c3cccc(C(F)(F)F)c3)C2)cc1` (configuration not stated), the “% Inhibition” value is recorded as -16% and the Z score is given as 2.28.
Consider `Cc1ncsc1CN(Cc1ccccc1)C(=O)[C@@H]1CCCN1S(C)(=O)=O`, for which the “% Inhibition” value is recorded as -14% and the Z score turned out to be 2.88.
Take `CCOc1ncc(NC(=O)CC)c(OCC)n1`: the “% Inhibition” value was -7% and the Z score is 1.27.
For `COCCNC(=O)c1ccc2c(c1)N(C)[C@@H](CC(=O)NCC(F)F)CO2`, the “% Inhibition” value is -14% and the Z score was determined as 2.04.
For `CCC1(CC)NC(=O)N(CC(=O)Nc2ccc3c(c2)C(=O)NCC3)C1=O`, the “% Inhibition” value is -14% and the Z score is reported as 1.56.
